The other results are listed elsewhere or left out.

29 molecules from the antibiotic and cytotoxicity screens of Wong et al. (2023) can be followed below.

The test system of one assay is HSkMC. Kind of assay: cytotoxicity call (relative viability < 0.9). Particulars: 10 µM.
The test system of another assay is S. aureus RN4220. As to the kind of experiment: growth inhibition call (relative growth <= 0.2). Particulars: 50 µM.

In the case of `COc1cc2nc(N(C)CCCNC(=O)C3CCCO3)nc(N)c2cc1OC.Cl` (stereo not drawn), the cytotoxicity call in the assay on HSkMC was “inactive”. Besides, in the assay on S. aureus RN4220, the growth inhibition call is “inactive”.
Regarding `O=C1/C(=C/c2cn(-c3ccccc3)nc2-c2ccc(OCc3ccc(Cl)cc3)cc2)SC(=S)N1CCS(=O)(=O)O`, the cytotoxicity call in the assay on HSkMC is “inactive”. Besides, the growth inhibition call in the assay on S. aureus RN4220 was “inactive”.
As for `C[C@H](CO)N1C[C@H](C)[C@H](CN(C)C(=O)Nc2ccc(C(F)(F)F)cc2)Oc2ccc(NC(=O)C3CCCCC3)cc2CC1=O`, the cytotoxicity call in the assay on HSkMC was “inactive”. Moreover, in the assay on S. aureus RN4220, the growth inhibition call was “inactive”.
`C[C@@H]1CN([C@H](C)CO)C(=O)Cc2cc(NS(=O)(=O)c3ccc(F)cc3)ccc2O[C@H]1CN(C)C(=O)Nc1cccc2ccccc12`: the cytotoxicity call with HSkMC was “inactive”. The growth inhibition call in the assay on S. aureus RN4220 was “inactive”.
Regarding `C[C@H](CO)N1C[C@H](C)[C@H](CN(C)Cc2ccc3c(c2)OCO3)Oc2ccc(NC(=O)C3CC3)cc2CC1=O`, the cytotoxicity call with HSkMC is “inactive”. Further, the growth inhibition call with S. aureus RN4220 is “inactive”.
With `CCCCNc1ccc(C(=O)OCCOCCOCCOCCOCCOCCOCCOCCOCCOC)cc1`, the cytotoxicity call with HSkMC was “inactive”. Moreover, in the assay with S. aureus RN4220, the growth inhibition call was “inactive”.
With `COCC#Cc1ccc2c(c1)O[C@H](CN(C)C(=O)Nc1ccccc1F)[C@H](C)CN([C@@H](C)CO)S2(=O)=O`, the cytotoxicity call in the assay with HSkMC is “inactive”. In addition, the growth inhibition call in the assay on S. aureus RN4220 is “inactive”.
With `C[C@@H]1CN([C@@H](C)CO)C(=O)Cc2cc(NC(=O)C3CC3)ccc2O[C@H]1CN(C)Cc1ccc(Oc2ccccc2)cc1`, the cytotoxicity call in the assay on HSkMC is “inactive”. In the assay with S. aureus RN4220, the growth inhibition call was “inactive”.
Consider `COc1ccc(NC(=O)N(C)C[C@H]2OCCCC[C@@H](C)Oc3ccc(NS(=O)(=O)c4ccccc4)cc3C(=O)N([C@@H](C)CO)C[C@H]2C)cc1`, for which the cytotoxicity call with HSkMC is “inactive”. In the assay with S. aureus RN4220, the growth inhibition call was “inactive”.
Consider `CNC[C@H]1Oc2ccc(NS(=O)(=O)c3cn(C)cn3)cc2CC(=O)N([C@@H](C)CO)C[C@H]1C`, for which the cytotoxicity call in the assay on HSkMC was “inactive”. For the same molecule, the growth inhibition call in the assay with S. aureus RN4220 was “inactive”.
With `C[C@@H]1CN([C@H](C)CO)C(=O)c2cc(C#Cc3cccc(F)c3)cnc2O[C@@H]1CN(C)Cc1ccccn1`, the cytotoxicity call with HSkMC was “inactive”. Further, the growth inhibition call with S. aureus RN4220 was “inactive”.
As to `COCC#Cc1ccc2c(c1)O[C@@H](CN(C)C(=O)C1CCOCC1)[C@@H](C)CN([C@H](C)CO)S2(=O)=O`, the cytotoxicity call in the assay on HSkMC was “inactive”. The growth inhibition call in the assay with S. aureus RN4220 was “inactive”.
On to `C[C@@H]1CN([C@H](C)CO)C(=O)Cc2cc(NC(=O)Cn3cnnn3)ccc2O[C@H]1CN(C)Cc1ccc2c(c1)OCO2`, for which the cytotoxicity call in the assay on HSkMC was “inactive”. Also, the growth inhibition call in the assay on S. aureus RN4220 is “inactive”.
Turning to `C[C@H](CO)N1C[C@H](C)[C@H](CN(C)Cc2ccc(Oc3ccccc3)cc2)Oc2c(NC(=O)C3CCCCC3)cccc2C1=O`, in the assay with HSkMC, the cytotoxicity call was “inactive”. The growth inhibition call in the assay on S. aureus RN4220 is “inactive”.
In the case of `C[C@@H]1CCCCO[C@@H](CN(C)Cc2ccc3c(c2)OCO3)[C@@H](C)CN([C@@H](C)CO)C(=O)c2cc(NS(=O)(=O)c3cccs3)ccc2O1`, the cytotoxicity call with HSkMC is “inactive”. Also, the growth inhibition call with S. aureus RN4220 was “inactive”.
Consider `O=C1CN(c2ccccc2)C(=O)N1`, for which, in the assay on HSkMC, the cytotoxicity call was “inactive”. Further, the growth inhibition call in the assay on S. aureus RN4220 was “inactive”.
In the case of `COc1ccc(CN(C)C[C@H]2Oc3c(NS(=O)(=O)c4cn(C)cn4)cccc3C(=O)N([C@H](C)CO)C[C@@H]2C)cc1`, the cytotoxicity call in the assay with HSkMC was “inactive”. Also, in the assay on S. aureus RN4220, the growth inhibition call was “inactive”.
On to `O=C(C[C@H]1CC[C@@H]2[C@H](COC[C@H](O)CN2C(=O)c2ccc3c(c2)OCO3)O1)NCCN1CCCCC1`, for which the cytotoxicity call in the assay with HSkMC is “inactive”. Moreover, the growth inhibition call in the assay on S. aureus RN4220 was “inactive”.
For the molecule `CC(C)NC(=O)Nc1ccc2c(c1)C(=O)N([C@H](C)CO)C[C@@H](C)[C@@H](CN(C)C(=O)C1CCCCC1)OCCCC[C@H](C)O2`, the cytotoxicity call in the assay on HSkMC was “inactive”. The growth inhibition call in the assay with S. aureus RN4220 was “inactive”.
For `C[C@H](O)C#Cc1ccc2c(c1)O[C@H](CN(C)C(=O)c1ccncc1)[C@@H](C)CN([C@@H](C)CO)S2(=O)=O`, the cytotoxicity call in the assay on HSkMC is “inactive”. In addition, in the assay with S. aureus RN4220, the growth inhibition call was “inactive”.
In the case of `CCOn1ccnc1`, the cytotoxicity call in the assay with HSkMC is “inactive”. Besides, the growth inhibition call with S. aureus RN4220 was “inactive”.
Take `CC(C)NC(=O)Nc1ccc2c(c1)C(=O)N([C@@H](C)CO)C[C@H](C)[C@H](CN(C)S(=O)(=O)c1ccc(F)cc1)O2`: in the assay on HSkMC, the cytotoxicity call is “inactive”. For the same molecule, the growth inhibition call with S. aureus RN4220 was “inactive”.
Regarding `CC(C)(C)OC(=O)CC[C@]12N=C(c3ccc(OCCCO)cc3)O[C@H]1c1ccccc1CN(C(=O)c1ccccc1)C2=O`, in the assay with HSkMC, the cytotoxicity call is “inactive”. In the assay on S. aureus RN4220, the growth inhibition call was “inactive”.
For the molecule `COc1cc(OC)c([C@@H]2c3c(n(C)c(=O)n(C)c3=O)N=C3COC(=O)C32)cc1OC` (stereo partly drawn), the cytotoxicity call with HSkMC is “inactive”. Also, the growth inhibition call in the assay with S. aureus RN4220 is “inactive”.
`C[C@H]1CN([C@@H](C)CO)C(=O)c2cccc(NC(=O)Nc3cccc4ccccc34)c2O[C@H]1CN(C)Cc1ccc2c(c1)OCO2`: the cytotoxicity call in the assay with HSkMC was “inactive”. In the assay on S. aureus RN4220, the growth inhibition call was “inactive”.
As for `Cc1noc(C)c1NC(=O)Nc1ccc2c(c1)C(=O)N([C@H](C)CO)C[C@H](C)[C@H](CN(C)S(=O)(=O)c1ccccc1)OCCCC[C@H](C)O2`, the cytotoxicity call with HSkMC is “inactive”. For the same molecule, in the assay on S. aureus RN4220, the growth inhibition call is “inactive”.
Regarding `C[C@H](CO)N1C[C@H](C)[C@H](CN(C)Cc2ccc(C(F)(F)F)cc2)Oc2c(NC(=O)C3CCCCC3)cccc2C1=O`, the cytotoxicity call in the assay on HSkMC (human skeletal muscle cells) was “inactive”. For the same molecule, the growth inhibition call in the assay on S. aureus RN4220 was “inactive”.
As for `C[C@@H](O)[C@@H](Nc1ncnc2ccccc12)C(=O)O`, the cytotoxicity call with HSkMC is “inactive”. Also, the growth inhibition call in the assay with S. aureus RN4220 is “inactive”.
For `Cn1nc(CN2CCCC2=O)c2c1CNC2`, the cytotoxicity call with HSkMC was “inactive”. Also, in the assay on S. aureus RN4220, the growth inhibition call was “inactive”.
